# Results from PMC12136788.
# The other results are listed elsewhere or left out.
# T1: UNK ZnF1-6 (called full-length) (human, UniProt Q9C0B0 30-357)
# T1 sequence: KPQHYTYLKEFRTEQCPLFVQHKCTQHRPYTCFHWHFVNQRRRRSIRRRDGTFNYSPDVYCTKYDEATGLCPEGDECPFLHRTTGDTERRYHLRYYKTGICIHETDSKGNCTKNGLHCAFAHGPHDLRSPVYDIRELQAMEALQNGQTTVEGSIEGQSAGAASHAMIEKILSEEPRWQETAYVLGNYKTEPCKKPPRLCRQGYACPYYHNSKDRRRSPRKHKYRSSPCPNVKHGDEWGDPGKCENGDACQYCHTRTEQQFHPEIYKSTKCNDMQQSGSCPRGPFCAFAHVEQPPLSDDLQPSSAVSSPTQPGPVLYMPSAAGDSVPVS
# B1: chr8:23572142:23572248:+|3pUTR|ENSG00000147454|unk|total|mutant (ssRNA)
# RNA: GGGAGUUCUACAGUCCGACGAUCCCUCCCUGGGCAGAAUGCCGCUUUUCUGCUUCACUGUGGCAGCCUCCUCCCUGGAUCCUCCGAUCCCAGAGGAGGGAAGAAAAUUUGCAGUGACUGAAAACAGUAAAAAAAAAAAAAAAACAACAGAGGAUUGAGCAUCA
# B2: chr2:159967538:159967678:-|CDS|ENSG00000153246|control|control|control (ssRNA)
# RNA: GGGAGUUCUACAGUCCGACGAUCUAGUGAAGAGUGUUCAGUUUCUAUGCCUAGUAUCUGUAAGCGAAAAAAGGUUUGGCUCAUAGAGAAAAAGAAAGAUACACCAAAACAACAUGGAACGUGUCCCAAAGGAUGGCUAUAUUUCAACAGAGGAUUGAGCAUCA
# B3: chr19:19111484:19111585:+|3pUTR|ENSG00000181035|msi1|FALSE|unique (ssRNA)
# RNA: GGGAGUUCUACAGUCCGACGAUCAGCCUCAUGUCUAUCCUAGACCCUGCAAGCAGCUGGGUCCCCAAGAGUGCAUCUCCCCCUAGAGUUGCCUGCCCAUGCCCACCUGCUUUGUAACCUUCCCAGGAGAUUCAUGCUUGCUCUCAACAGAGGAUUGAGCAUCA
# B4: chr13:66631209:66631411:-|CDS|ENSG00000184226|control|control|control (ssRNA)
# RNA: GGGAGUUCUACAGUCCGACGAUCCCUGAUGGCUCCCAGGAAAGCUGCAGUGACAGUGGUCUAGGAGACCAUGAGCCGGUGGGUAGUGGAACCCUGAUCUCACACCCUCUUCCUCUGGUUCAGCCACAGGACGAAUUCUAUGACCAACAGAGGAUUGAGCAUCA
# B5: chr6:149379354:149379455:+|CDS|ENSG00000055208|msi1|total|mutant (ssRNA)
# RNA: GGGAGUUCUACAGUCCGACGAUCAGGGGUGGUGUCCCCUACCUUUGAACUUACAAAUCUUCUUAAUCAUCCUGAUCAUUAUGCCGAAACCGAGAAUAUUCAGCACCUCACGGACCCUACAUCCGCACAUGUGGACCGAAUAAGCAACAGAGGAUUGAGCAUCA
# B6: ENSG00000130560:stop:overlap|stop_codon|ENSG00000130560|stop_codon|NA|stop_codon (ssRNA)
# RNA: GGGAGUUCUACAGUCCGACGAUCCAGAAACGGGGCCUGUCAUGCUGCAGAUCUCUAGAAUCUUCCAGACACUAAAUCGCACGUAGGUGGCGUUGUUCCACUCGGCUAUCAGGCCACAGCAGCCCCCUGGUGCGGCCCGAGACCCAACAGAGGAUUGAGCAUCA
# B7: ENSG00000148248:stop:overlap|stop_codon|ENSG00000148248|stop_codon|NA|stop_codon (ssRNA)
# RNA: GGGAGUUCUACAGUCCGACGAUCUGAUGUUCAUGACCCUCCUUCACUUUGACGCCAGCUUCUUUUCUCAGCCGUCUCAGCAGUAGCUACAUCAGCCUGAUGGAUAGAGACUUCAUGACGUGCAGCAGCUGGAACUUUUGUUUACAACAGAGGAUUGAGCAUCA
# B8: chr17:49707729:49707944:-|CDS|ENSG00000121073|control|control|control (ssRNA)
# RNA: GGGAGUUCUACAGUCCGACGAUCCUGCCGGUGCCGGUUGUGAGCGGGUCUCCAGUCGGCUCCUCUGGGCGUCUCAUGGCCUCUAGCAGCUCCCUGGUGCCCGACCGGCUGCGCCUGCCGCUCUGCUUCCUGGGUGUCUUUGUCCAACAGAGGAUUGAGCAUCA
# B9: chrX:9032958:9033121:-|CDS|ENSG00000177138|control|control|control (ssRNA)
# RNA: GGGAGUUCUACAGUCCGACGAUCCCAGGUUUCCUUAGCUUCCUUAGUGUGUCUUUGCGCUCACCAGGUUCGGGGAUCGCCUCUAGCUUCCCAGGACAACCAGCCACGGAUCCUGUGGGCAGGAGGGCUGCCAAGGCCCAGUUGCAACAGAGGAUUGAGCAUCA
# B10: chr22:38485951:38486139:-|CDS|ENSG00000100201|unk|total|mutant (ssRNA)
# RNA: GGGAGUUCUACAGUCCGACGAUCCCGCCGCACCACCUCAACUGGGAGAAGUUCACAGAGCUCCCGCCAGCAGUUCCGUGGGACCGGCCGGUCUGGGCAGCAGCCACAGCCACUGAUGUCACAACAGUUUGCACAGCCUCCGGGCAACAGAGGAUUGAGCAUCA
# B11: chr6:116593178:116593279:+|3pUTR|ENSG00000111832|unk|total|mutant (ssRNA)
# RNA: GGGAGUUCUACAGUCCGACGAUCUAUGAUUUUCCUUUCUUUUUUUCUAAGAAAAAAUUAUUUUCAGGAGAAUAUUCUUCUGACCGCUUUCAUCAUUGAACUUAAUAAACUGACCUUAAAAUUUCAAAUAUAAAAUGUUCAAGGCAACAGAGGAUUGAGCAUCA
# B12: chr12:7729382:7729740:-|three_prime_utr|ENSG00000198178|control|control|control (ssRNA)
# RNA: GGGAGUUCUACAGUCCGACGAUCAUCUACAUAUAAAUGAAAUAUUCUCCCUGGAAAUGUGUUUGGGUUGGCAUCCACCGUUGUAGAAAGCUAAAUUGAUUUUUUAAUUUAUGUGUAAGUUUUGUACAAGGAAUGCCCCUAAAACAACAGAGGAUUGAGCAUCA
# B13: chr16:46956839:46956924:-|3pUTR|ENSG00000069345|msi1_unk|total|mutant (ssRNA)
# RNA: GGGAGUUCUACAGUCCGACGAUCAUCAAUCCAGAUGAACUGAGGGACAUCUGUUGGUCUAUGUAUAACUUUUAAAAUUGGUACCGUAUCUACAGAGUGUAUAAUUUAAACUAACCACAAAGCUUUACAUCUUCAUUUUGACUGCAACAGAGGAUUGAGCAUCA
# B14: chrX:53645320:53645442:-|CDS|ENSG00000086758|unk|total|mutant (ssRNA)
# RNA: GGGAGUUCUACAGUCCGACGAUCUUAUUGGCUUCCUCUGAUAUGCAAGUGGUGCUGGCAGUCCUCAAUCUCCUAUAUGUAUUCCGCAAAAGAUCAAACUACAUCACUCGUCUGGGAUCUGACAAGAGGACCCCGCUGCUAACUCAACAGAGGAUUGAGCAUCA
# B15: chr5:80438700:80438808:+|CDS|ENSG00000039319|unk|total|mutant (ssRNA)
# RNA: GGGAGUUCUACAGUCCGACGAUCAGAUACAACCGAAAGUGAACCCAGCACAGCAGAUACCGUUGUUCCAAUCACUUGUGCUACCGAUUCUACAGCUGAUCCACAGGUCCGCUUCAACUCUAAUUACAUUGAUACCGAAAGUAACAACAGAGGAUUGAGCAUCA
# B16: chrX:8528873:8532994:-|three_prime_utr|ENSG00000011201|control|control|control (ssRNA)
# RNA: GGGAGUUCUACAGUCCGACGAUCAUGCACACUUCCAGAGGCAGUGGGAACUGCUCAGAGGCCCGGACUCUCCUAUGUGACUUUAGUGCAGGAAGAACUUCUGUCAAUCAUGGACGCAUCUGGAGACAAGUGAGAAACAGUAGACAACAGAGGAUUGAGCAUCA
# B17: ENSG00000070961:be:win_651|CDS|ENSG00000070961|bound_else_gene|NA|bound_elsewhere_windowed (ssRNA)
# RNA: GGGAGUUCUACAGUCCGACGAUCAGUGAAAUAUGGUGAUCUUCUUCCAGCUGACGGCAUACUUAUUCAAGGCAACGAUCUUAAAAUUGAUGAAAGCUCAUUGACUGGUGAAUCAGAUCAUGUUAAAAAGUCUUUAGAUAAGGACAACAGAGGAUUGAGCAUCA
# B18: chr1:192811693:192811799:+|3pUTR|ENSG00000116741|unk|total|mutant (ssRNA)
# RNA: GGGAGUUCUACAGUCCGACGAUCCUUGAAUUCAGCCUGGGUGUUCAGGAAACAUCACUCAGAACUAUUGAUUCAAAGUUGGGCCGUGAAUCAGGAAGCCAGUAACUGACCCGGAGAAGCUGGUAUCAGAACAGCUUCCCUCACCAACAGAGGAUUGAGCAUCA
# B19: chr1:206732925:206733026:+|3pUTR|ENSG00000162889|msi1|FALSE|unique (ssRNA)
# RNA: GGGAGUUCUACAGUCCGACGAUCAAGUGAGCAAGGUGCUCUUGAACCUGUGCUCAUUUUGCAAUUUUAUCAGUAAUUUGACUUAGAGUUUUUACGAAACCUCUUUUGUUGUCCUUGCCCCACUCCUCUCCACCAGACGCCUUCCAACAGAGGAUUGAGCAUCA
# B20: chr12:10081268:10081413:-|three_prime_utr|ENSG00000150048|control|control|control (ssRNA)
# RNA: GGGAGUUCUACAGUCCGACGAUCUCAGUACUACCAGCUCUCCAAUACUGGUCAAGACACCAUUUCUCAAAUGGAAGAAAGAUUAGGAAAUACGUCCCAAGAGUUGCAAUCUCUUCAAGUCCAGAAUAUAAAGCUUGCAGGAAGCAACAGAGGAUUGAGCAUCA
# B21: chr15:39595431:39595532:+|3pUTR|ENSG00000137801|msi1_unk|total|mutant (ssRNA)
# RNA: GGGAGUUCUACAGUCCGACGAUCCCCCAGGAUCACUUCUCCUUGGCUUCCUUCUUUUCUGUGCUUGCAUCAGUGUGGACUCCCCGAACGUGCGACCUGCCUCAAGAAAAUGCAGUUUUCAAAAACAGACUCAGCAUUCAGCCUCAACAGAGGAUUGAGCAUCA
# B22: chr1:42696720:42696786:+|CDS|ENSG00000065978|msi1_unk|total|mutant (ssRNA)
# RNA: GGGAGUUCUACAGUCCGACGAUCCCAGUUCAAGGCAGUAAAUAUGCAGCAGACCGUAACCAUUACCGACGCUAUCCACGUCGCCGGGGUCCUCCACGCAAUUACCAGCAAAAUUACCAGAACCGUGAGAGUGGGGAAAAGAACCAACAGAGGAUUGAGCAUCA
# Target: T1, UNK ZnF1-6 (called full-length)
# Assay: nsRBNS (natural sequence RNA bind-n-seq); RBNS binding buffer (assumed for nsRBNS): 25 mM Tris pH 7.5, 150 mM KCl, 3 mM MgCl2, 0.01% Triton X-100, 500 ug/ml BSA, 20 U/ml SUPERase-In, 4 C; UNK is unkempt and MSI1 is Musashi-1; names of the RNAs are library labels; protein concentration not given here; high values mean tight binding
row,Binder,binding signal
1,B1,0.647 enrichment R
2,B2,0.378 enrichment R
3,B3,0.762 enrichment R
4,B4,0.557 enrichment R
5,B5,0.569 enrichment R
6,B6,0.382 enrichment R
7,B7,0.871 enrichment R
8,B8,0.689 enrichment R
9,B9,1.37 enrichment R
10,B10,0.713 enrichment R
11,B11,0.574 enrichment R
12,B12,0.623 enrichment R
13,B13,0.758 enrichment R
14,B14,0.566 enrichment R
15,B15,0.438 enrichment R
16,B16,0.679 enrichment R
17,B17,0.431 enrichment R
18,B18,0.375 enrichment R
19,B19,0.465 enrichment R
20,B20,0.413 enrichment R
21,B21,0.644 enrichment R
22,B22,0.624 enrichment R
